# Assay results reported in the supplement of paper PMC12217912.
# This is one part of the list. Sequences were assembled here from the parent chain. Values near 0.05 are background.
# B1: TEV protease; numbered along this chain (parent)
# chain: MGESLFKGPRDYNPISSSICHLTNESDGHTTSLYGIGFGPFIITNKHLFRRNNGTLVVQSLHGVFKVKDTTTLQQHLVDGRDMIIIRMPKDFPPFPQKLKFREPQREERICLVTTNFQTKSMSSMVSDTSCTFPSGDGIFWKHWIQTKDGQCGSPLVSTRDGFIVGIHSASNFTNTNNYFTSVPKNFMELLTNQEAQQWVSGWRLNADSVLWGGHKVFMVKPEEPFQPVKEATQL
# Variants of: B1
# Assay: raw area under fraction-flipped curve 0-4 h after induction (AUC4h, not background-subtracted), DNA-recorder readout of cleavage of the substrate (dimensionless); higher = more cleavage of the substrate by the protease variant
# Details: temperature: 34 °C; time window: 0-4 h after rhamnose induction
# Experimental: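 In vivo DNA recorder in E. coli TOP10(DE3) ΔrhaA at 34 °C. Each TEVp single-site mutant (parent TEVp 0) is paired with a single-site variant of the 7-mer TEVs (canonical ENLYFQ|S). The substrate sits between flexible linkers in a Bxb1-sfGFP-TEVs-SsrA fusion, so cleavage stabilises Bxb1 and speeds flipping of a recombination array, read by NGS. The value is the raw area under the fraction-flipped curve over 0-4 h after rhamnose induction (AUC4h), with ≥20 reads per time point. It is not background-subtracted; inactive controls average about 0.047.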
# 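Note: Bxb1 expression induced with 0.2% (w/v) L-rhamnose at OD600 near 0.5, cultures sampled hourly, flipped fraction per protease–substrate barcode pair counted by paired-end Illumina sequencing.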
variant,measurement,value
MGESLFKGPRDYNPISSSICHLTNESDGHTTSLYGIGFGPFIITNKHLFRRNNGTLVVQSLHGVFKVKDTTTLQQHLVDGRDMIIIRMPKDFPPFPQKLKFREPQREERICLVTTNFQTKSMSSMVSDTSCTFPSGDGIFWPHWIQTKDGQCGSPLVSTRDGFIVGIHSASNFTNTNNYFTSVPKNFMELLTNQEAQQWVSGWRLNADSVLWGGHKVFMVKPEEPFQPVKEATQL [K142P],area with substrate ENLYFQA,0.0679
same,area with substrate ENLYFQC,0.0617
same,area with substrate ENLYFQD,0.0533
same,area with substrate ENLYFQE,0.0549
same,area with substrate ENLYFQG,0.064
same,area with substrate ENLYFQH,0.0494
same,area with substrate ENLYFQK,0.0864
same,area with substrate ENLYFQL,0.0572
same,area with substrate ENLYFQN,0.061
same,area with substrate ENLYFQP,0.0357
same,area with substrate ENLYFQR,0.0618
same,area with substrate ENLYFQS,0.0687
same,area with substrate ENLYFQT,0.0527
same,area with substrate ENLYFQV,0.0587
same,area with substrate ENLYFQW,0.0529
same,area with substrate ENLYFQY,0.0619
MGESLFKGPRDYNPISSSICHLTNESDGHTTSLYGIGFGPFIITNKHLFRRNNGTLVVQSLHGVFKVKDTTTLQQHLVDGRDMIIIRMPKDFPPFPQKLKFREPQREERICLVTTNFQTKSMSSMVSDTSCTFPSGDGIFWRHWIQTKDGQCGSPLVSTRDGFIVGIHSASNFTNTNNYFTSVPKNFMELLTNQEAQQWVSGWRLNADSVLWGGHKVFMVKPEEPFQPVKEATQL [K142R],area with substrate ENLYFQA,0.0937
same,area with substrate ENLYFQC,0.096
same,area with substrate ENLYFQF,0.0699
same,area with substrate ENLYFQH,0.0675
same,area with substrate ENLYFQK,0.0623
same,area with substrate ENLYFQL,0.0579
same,area with substrate ENLYFQM,0.0761
same,area with substrate ENLYFQN,0.0748
same,area with substrate ENLYFQP,0.0531
same,area with substrate ENLYFQQ,0.062
same,area with substrate ENLYFQR,0.0484
same,area with substrate ENLYFQS,0.0832
same,area with substrate ENLYFQT,0.0569
same,area with substrate ENLYFQV,0.0526
same,area with substrate ENLYFQW,0.0614
same,area with substrate ENLYFQY,0.0752
MGESLFKGPRDYNPISSSICHLTNESDGHTTSLYGIGFGPFIITNKHLFRRNNGTLVVQSLHGVFKVKDTTTLQQHLVDGRDMIIIRMPKDFPPFPQKLKFREPQREERICLVTTNFQTKSMSSMVSDTSCTFPSGDGIFWDHWIQTKDGQCGSPLVSTRDGFIVGIHSASNFTNTNNYFTSVPKNFMELLTNQEAQQWVSGWRLNADSVLWGGHKVFMVKPEEPFQPVKEATQL [K142D],area with substrate ENLYFQA,0.0877
same,area with substrate ENLYFQC,0.0773
same,area with substrate ENLYFQD,0.0573
same,area with substrate ENLYFQG,0.0815
same,area with substrate ENLYFQH,0.0662
same,area with substrate ENLYFQI,0.0629
same,area with substrate ENLYFQK,0.0535
same,area with substrate ENLYFQL,0.0653
same,area with substrate ENLYFQM,0.062
same,area with substrate ENLYFQR,0.0596
same,area with substrate ENLYFQS,0.074
same,area with substrate ENLYFQT,0.0698
same,area with substrate ENLYFQV,0.0503
same,area with substrate ENLYFQW,0.0607
same,area with substrate ENLYFQY,0.0715
MGESLFKGPRDYNPISSSICHLTNESDGHTTSLYGIGFGPFIITNKHLFRRNNGTLVVQSLHGVFKVKDTTTLQQHLVDGRDMIIIRMPKDFPPFPQKLKFREPQREERICLVTTNFQTKSMSSMVSDTSCTFPSGDGIFWKHWIQGKDGQCGSPLVSTRDGFIVGIHSASNFTNTNNYFTSVPKNFMELLTNQEAQQWVSGWRLNADSVLWGGHKVFMVKPEEPFQPVKEATQL [T147G],area with substrate ENLYFQA,0.0783
same,area with substrate ENLYFQC,0.077
same,area with substrate ENLYFQI,0.0573
same,area with substrate ENLYFQQ,0.0448
same,area with substrate ENLYFQS,0.0674
same,area with substrate ENLYFQT,0.0552
same,area with substrate ENLYFQV,0.0563
same,area with substrate ENLYFQY,0.0716
MGESLFKGPRDYNPISSSICHLTNESDGHTTSLYGIGFGPFIITNKHLFRRNNGTLVVQSLHGVFKVKDTTTLQQHLVDGRDMIIIRMPKDFPPFPQKLKFREPQREERICLVTTNFQTKSMSSMVSDTSCTFPSGYGIFWKHWIQTKDGQCGSPLVSTRDGFIVGIHSASNFTNTNNYFTSVPKNFMELLTNQEAQQWVSGWRLNADSVLWGGHKVFMVKPEEPFQPVKEATQL [D137Y],area with substrate ENLYFQA,0.108
same,area with substrate ENLYFQC,0.106
same,area with substrate ENLYFQD,0.072
same,area with substrate ENLYFQI,0.05
same,area with substrate ENLYFQK,0.0523
same,area with substrate ENLYFQN,0.0873
same,area with substrate ENLYFQR,0.0617
same,area with substrate ENLYFQS,0.0921
same,area with substrate ENLYFQT,0.0599
same,area with substrate ENLYFQV,0.0587
same,area with substrate ENLYFQW,0.0687
MGESLFKGPRDYNPISSSICHLTNESDGHTTSLYGIGFGPFIITNKHLFRRNNGTLVVQSLHGVFKVKDTTTLQQHLVDGRDMIIIRMPKDFPPFPQKLKFREPQREERICLVTTNFQTKSMSSMVSDTSCTFPPGDGIFWKHWIQTKDGQCGSPLVSTRDGFIVGIHSASNFTNTNNYFTSVPKNFMELLTNQEAQQWVSGWRLNADSVLWGGHKVFMVKPEEPFQPVKEATQL [S135P],area with substrate ENLYFQA,0.061
same,area with substrate ENLYFQC,0.0873
same,area with substrate ENLYFQD,0.0511
same,area with substrate ENLYFQE,0.0711
same,area with substrate ENLYFQG,0.0772
same,area with substrate ENLYFQH,0.0567
same,area with substrate ENLYFQI,0.0461
same,area with substrate ENLYFQK,0.0663
same,area with substrate ENLYFQL,0.0669
same,area with substrate ENLYFQM,0.0534
same,area with substrate ENLYFQN,0.058
same,area with substrate ENLYFQP,0.0583
same,area with substrate ENLYFQR,0.0595
same,area with substrate ENLYFQS,0.0748
same,area with substrate ENLYFQV,0.0759
MGESLFKGPRDYNPISSSICHLTNESDGHTTSLYGIGFGPFIITNKHLFRRNNGTLVVQSLHGVFKVKDTTTLQQHLVDGRDMIIIRMPKDFPPFPQKLKFREPQREERICLVTTNFQTKSMSSMVSDTSCTFPSGDGIFWKHWIITKDGQCGSPLVSTRDGFIVGIHSASNFTNTNNYFTSVPKNFMELLTNQEAQQWVSGWRLNADSVLWGGHKVFMVKPEEPFQPVKEATQL [Q146I],area with substrate ENLYFQA,0.124
same,area with substrate ENLYFQC,0.118
same,area with substrate ENLYFQF,0.089
same,area with substrate ENLYFQG,0.0956
same,area with substrate ENLYFQI,0.0603
same,area with substrate ENLYFQK,0.0612
same,area with substrate ENLYFQL,0.0609
same,area with substrate ENLYFQR,0.0634
same,area with substrate ENLYFQS,0.108
same,area with substrate ENLYFQT,0.0642
same,area with substrate ENLYFQV,0.074
MGESLFKGPRDYNPISSSICHLTNESDGHTTSLYGIGFGPFIITNKHLFRRNNGTLVVQSLHGVFKVKDTTTLQQHLVDGRDMIIIRMPKDFPPFPQKLKFREPQREERICLVTTNFQTKSMSSMVSDTSCTFPSGDGIFWKDWIQTKDGQCGSPLVSTRDGFIVGIHSASNFTNTNNYFTSVPKNFMELLTNQEAQQWVSGWRLNADSVLWGGHKVFMVKPEEPFQPVKEATQL [H143D],area with substrate ENLYFQA,0.0617
same,area with substrate ENLYFQC,0.0612
same,area with substrate ENLYFQG,0.0665
same,area with substrate ENLYFQI,0.0575
same,area with substrate ENLYFQL,0.0524
same,area with substrate ENLYFQM,0.0568
same,area with substrate ENLYFQN,0.0583
same,area with substrate ENLYFQP,0.0658
same,area with substrate ENLYFQR,0.0518
same,area with substrate ENLYFQS,0.0635
same,area with substrate ENLYFQT,0.0469
same,area with substrate ENLYFQV,0.0504
same,area with substrate ENLYFQW,0.0568
MGESLFKGPRDYNPISSSICHLTNESDGHTTSLYGIGFGPFIITNKHLFRRNNGTLVVQSLHGVFKVKDTTTLQQHLVDGRDMIIIRMPKDFPPFPQKLKFREPQREERICLVTTNFQTKSMSSMVSDTSCTFPSGDVIFWKHWIQTKDGQCGSPLVSTRDGFIVGIHSASNFTNTNNYFTSVPKNFMELLTNQEAQQWVSGWRLNADSVLWGGHKVFMVKPEEPFQPVKEATQL [G138V],area with substrate ENLYFQA,0.0784
same,area with substrate ENLYFQC,0.0774
same,area with substrate ENLYFQD,0.0386
same,area with substrate ENLYFQF,0.0658
same,area with substrate ENLYFQK,0.0473
same,area with substrate ENLYFQL,0.0678
same,area with substrate ENLYFQM,0.065
same,area with substrate ENLYFQN,0.0635
same,area with substrate ENLYFQP,0.0397
same,area with substrate ENLYFQS,0.084
same,area with substrate ENLYFQT,0.0648
same,area with substrate ENLYFQV,0.0488
